Results as given in PubChem BioAssay AID1768 (National Center for Advancing Translational Sciences (NCATS), 2009).
Screen size: about 270,000 compounds; about 620 (0.23%) were called active. Inconclusive results, whose numbers are uncertain, are shown with a selection of clear calls. Calls follow the shape of the dose curve; as a rule, active = well fitted inhibition curve with a large enough effect in the polarisation, with a control signal flat (not every such curve was filed as active); inconclusive = small, poorly fitted or top-dose-only effect, or effect the other way, or a change in a side signal; inactive = no such curve, though single readings can be large or run the other way; the % refers to the polarisation. A potency beside an inconclusive call is a rough fit, not a confirmed value. “Side channel” marks fits to a control or component signal instead of the main read-out.

These compounds were tested against Menin (Homo sapiens) (UniProt O00255) (assay: qHTS Assay for Inhibitors Targeting the Menin-MLL Interaction in MLL Related Leukemias: Competition With Texas Red Labeled MLL-derived Mutant Peptide). Conditions: fluorescence polarization; FP activity change, negative = inhibition: at 61.6 µM (top of the series).
For FP activity change, negative = inhibition in this document: % of control where 0% means no effect.
Potency is read from the fitted curve at half-maximal effect; tags tell the direction and shape of the fitted curve or compound fluorescence and quenching.

UniProt O00255, sequence (O00255 whole entry, looked up): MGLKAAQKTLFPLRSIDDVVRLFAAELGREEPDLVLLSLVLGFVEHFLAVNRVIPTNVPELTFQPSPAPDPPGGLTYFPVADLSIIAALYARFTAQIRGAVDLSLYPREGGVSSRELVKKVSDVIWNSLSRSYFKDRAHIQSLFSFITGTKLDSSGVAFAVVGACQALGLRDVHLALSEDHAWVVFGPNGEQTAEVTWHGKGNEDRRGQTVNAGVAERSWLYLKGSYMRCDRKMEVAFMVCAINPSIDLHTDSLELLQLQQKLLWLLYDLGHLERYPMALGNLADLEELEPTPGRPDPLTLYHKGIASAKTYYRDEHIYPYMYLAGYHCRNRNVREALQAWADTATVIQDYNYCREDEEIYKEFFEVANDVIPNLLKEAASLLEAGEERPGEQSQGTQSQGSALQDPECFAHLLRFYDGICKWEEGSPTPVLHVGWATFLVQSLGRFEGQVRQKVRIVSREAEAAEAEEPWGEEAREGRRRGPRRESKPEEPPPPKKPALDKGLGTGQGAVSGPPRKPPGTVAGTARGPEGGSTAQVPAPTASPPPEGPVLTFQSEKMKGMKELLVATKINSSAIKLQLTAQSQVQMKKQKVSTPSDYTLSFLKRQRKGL

Potency, active:
COc1ccc(NCc2cc(=O)[nH]c3ccccc23)cc1 39.8 µM

Potency, inconclusive:
Cc1ccc(N(C(=O)c2ccco2)C(C(=O)NC2CCCC2)c2ccco2)c(C)c1 (stereo unspecified) 20 µM [inhibitor, partial curve]
Cc1scc(C(=O)NCc2ccco2)c1-c1ccccc1 39.8 µM [quencher, side channel, single point]
CCCN(CCC)c1ncnc2c1cnn2-c1ccc(OC)cc1 28.2 µM [fluorescent, side channel, single point]
CC(=O)[C@H]1[C@@H]2C(=O)N(c3cccc(Cl)c3)C(=O)[C@@H]2[C@H]2c3ccccc3C=CN21 14.1 µM [quencher, side channel, partial curve]
CCC(C)NC(=O)C1CCC(=O)N1Cc1ccc(C)cc1 (stereo unspecified) 2.82 µM [inhibitor, full curve]
N=C1/C(=C/c2cccn2-c2cccc([N+](=O)[O-])c2)C(=O)N=C2SC=CN12 28.2 µM [quencher, side channel, single point]
COc1ccccc1NS(=O)(=O)c1cc(NC(=O)c2ccc(Cl)nc2)ccc1Cl 3.98 µM [quencher, side channel, partial curve]
COc1cccc(N=c2oc3cc(O)ccc3cc2C(=O)NCC2CCCO2)c1 (stereo unspecified) 25.1 µM [quencher, partial curve]
O=C(O)/C=C/C(=O)NNc1ccc([N+](=O)[O-])cc1 28.2 µM [quencher, side channel, single point]
COc1cc(/C=C2\C=CC(=O)O2)cc(OC)c1 31.6 µM [inhibitor, single point]
COc1ccc(NC(=O)c2ccc3c(c2)CCN3S(=O)(=O)c2ccccc2)cc1 8.91 µM [quencher, side channel, full curve, poor fit]
CCOc1cc(/C=N/Nc2ccccc2Cl)ccc1OCC(=O)O 31.6 µM [quencher, side channel, single point]
COC(=O)c1ccc(NC(=S)NCCc2ccccc2C)cc1 35.5 µM [quencher, side channel, single point]
Cc1ccc(-n2c(SCC(=O)O)nc3c(sc(=S)n3-c3ccc(C)c(C)c3)c2=O)cc1 28.2 µM [quencher, side channel, partial curve]
O=C(Nc1ccon1)Nc1cc(Cl)ccc1Cl 35.5 µM [inhibitor, single point]
O=C(Cc1ccc(Br)cc1)Nc1ccc(S(=O)(=O)NCC2CCCO2)cc1 (stereo unspecified) 3.16 µM [quencher, side channel, full curve, poor fit]
Cc1ccc(-n2nnnc2SCc2nnc(-c3ccccc3Br)o2)cc1 31.6 µM [quencher, side channel, single point]
COc1ccc(Nc2nc(-c3ccccc3F)nc3ccccc23)cc1OC 22.4 µM [quencher, side channel, partial curve]
CC1=NN(c2ccccc2)C(=O)/C1=C\c1ccc(Oc2ccc([N+](=O)[O-])cc2[N+](=O)[O-])cc1 20 µM [quencher, partial curve]
CS(=O)(=O)N1c2cccc3cccc(c23)S1(=O)=O 39.8 µM [fluorescent, side channel, single point]
CCOC(=O)c1ccc(N/C=C/C(=O)c2ccc(OC)cc2)cc1 22.4 µM [inhibitor, partial curve]
CSc1ccc(/C=C/C(=O)Nc2ccccc2)cc1 7.08 µM [quencher, side channel, partial curve]
Cc1nn2cnnc2c(C)c1Cc1c(F)cccc1Cl 22.4 µM [fluorescent, side channel, single point]
COc1ccc(-c2nc3ccccc3s2)cc1NC(C)=O 25.1 µM [inhibitor, single point]
O=C(O)COc1ccc(/C=C2\SC(=Nc3ccccc3)N(c3ccccc3)C2=O)cc1 15.8 µM [quencher, side channel, partial curve]
Fc1ccc(-c2csc(NC(=S)Nc3ccccc3)n2)cc1 7.08 µM [quencher, side channel, full curve]
CNC(=S)N(CCc1c(C)[nH]c2ccc(OC)cc12)Cc1ccco1 28.2 µM [quencher, side channel, single point]
COc1ccc(-c2nc3c(c(=O)c4ccccc4n3C)c(=O)n2Cc2ccccc2)cc1 39.8 µM [fluorescent, side channel, single point]
N#CCCn1c(SCC(=O)c2c[nH]c3ccccc23)nc2ccccc21 31.6 µM [quencher, side channel, single point]
O=C(NC(=S)Nc1ccccc1N1CCCCC1)c1ccc(-c2cccc([N+](=O)[O-])c2)o1 12.6 µM [quencher, side channel, partial curve]
Cc1ccc(-c2cn(C[C@H]3CC[C@@H]([C@@H]4CC[C@H](Cn5cc(-c6ccc(C)cc6)nn5)O4)O3)nn2)cc1 39.8 µM [fluorescent, side channel, single point]
COc1ccc(CCN2CN(S(=O)(=O)c3ccccc3)c3nc4ccccc4nc32)cc1 35.5 µM [quencher, side channel, single point]
CCOC(=O)/C(C#N)=C/c1c(N2CCN(c3ccccc3)CC2)nc2c(C)cccn2c1=O 3.98 µM [inhibitor, partial curve]
NS(=O)(=O)c1ccc(Nc2nc(-c3ccc(O)cc3)cs2)cc1 25.1 µM [quencher, side channel, single point]
CCCCCc1nnc(NC(=O)Cc2cccs2)s1 28.2 µM [quencher, side channel, single point]
CCc1nc2ccccc2n1Cc1ccccc1F 39.8 µM [fluorescent, side channel, single point]
O=C(Nc1cccnc1)c1cn(-c2ccccc2)nc1-c1cccs1 14.1 µM [quencher, side channel, partial curve]
O=C(CSc1ccc(-c2ccccc2)nn1)NC1CCCC1 39.8 µM [inhibitor, single point]
CCN(CC)CCN(C(=O)CCS(=O)(=O)c1ccccc1)c1nc2cc(C)cc(C)c2s1 35.5 µM [fluorescent, side channel, partial curve]
COC(=O)C1=C(C)N(CC2CC2)C(=NCCN2CCOCC2)N[C@H]1c1ccccc1 25.1 µM [inhibitor, single point]
Cn1c(O)c(N=NC(=O)c2ccco2)c2ccccc21 35.5 µM [quencher, side channel, single point]
O=C(Nc1c(-c2cccs2)nc2ccccn12)c1ccc2ccccc2c1 22.4 µM [fluorescent, side channel, single point]
O=C(Nc1ccc(S(=O)(=O)Nc2cnc3ccccc3n2)cc1)c1ccccc1Br 35.5 µM [quencher, single point]
COc1ccc(C(C(=O)NC2CCCC2)N(C(=O)c2snc(-c3ccc(F)cc3)c2N)c2ccccc2)cc1 (stereo unspecified) 39.8 µM [inhibitor, single point]
COc1cccc(NC(=O)Nc2cccs2)c1 25.1 µM [quencher, side channel, partial curve]
Cc1c(Cl)cccc1NC(=O)Cn1cc(C(F)(F)F)cc(Cl)c1=O 39.8 µM [inhibitor, single point]
O=C(Cc1c[nH]c2ccccc12)Nc1nnc(C2CC2)s1 31.6 µM [quencher, side channel, single point]
CC(=O)Nc1ccc(S(=O)(=O)Nc2nc3ccccc3nc2Nc2ccc(O)c(C(=O)O)c2)cc1 14.1 µM [quencher, side channel, partial curve]
O=C(NCCc1c[nH]c2ccccc12)c1cc(Cl)c2c(c1)OCO2 22.4 µM [quencher, side channel, single point]
Cc1ccc(Sc2cncc3sc(C(N)=O)cc23)cc1 22.4 µM [fluorescent, side channel, single point]

FP activity change, negative = inhibition, inactive:
COC(=O)c1ccccc1OCCOc1ccccc1C(=O)OC -5.12%
O=C(Cc1ccc(Cl)cc1)Nc1ccc(-c2nnc(-c3ccco3)o2)cc1 29.9%
Clc1ccc(-n2nnnc2-c2cnc(-c3ccncc3)nc2-c2cccs2)cc1 3.9%
O=C(NC(Cc1ccccc1)c1ccc2c(c1)OCCCO2)c1ccccc1 (stereo unspecified) -7.96%
CSCC[C@H](NC(=O)[C@H](Cc1c[nH]c2ccccc12)NC(=O)CCNC(=O)OC(C)(C)C)C(=O)N[C@@H](CC(=O)O)C(=O)N[C@@H](Cc1ccccc1)C(N)=O 0.0989%
